Data on 78 molecules can be found in ChEMBL document CHEMBL1201862, “PubChem BioAssay data set” (2004).

Each structure is given as a SMILES string.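 Cultured in 96-well plates, cells were exposed to test compound for 48 hours across five concentrations. GI50 marks 50% less growth.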 Active and inactive are the calls of the source. No stated cut-off is given here; in the data, active = GI50 up to about 1.1 µM and inactive = higher.

The test relates to NCI-H322M. The test can be described thus: NCI-60 cell line screen, 48 h.
Turning to `CC(C)N(Cc1ccccc1)S(=O)(=O)c1nc(C(C)(C)C)n[nH]1`, the GI50 was inactive: > 100 µM. Consider `CC1(C)CCC(C)(C)c2c1ccc(O)c2Cc1c(O)ccc2c1C(C)(C)CCC2(C)C`, for which the GI50 was inactive: 2.37 µM.

Consider `OC(c1cc(C(F)(F)F)nc2c(Cl)cc(Cl)cc12)C1CCCCN1` (stereo not drawn), for which the GI50 was inactive: > 37.2 µM. For `CCCCCc1cc2c(cc1O)CC[C@@H]1[C@@H]2CC[C@]2(C)[C@@H](O)CC[C@@H]12` the value was inactive: 13.4 µM; for `O=C1C=CC(=O)C(CNc2ccc(C(=O)OCc3ccccc3)cc2)=C1`, inactive: 25.2 µM. In the case of `O=C1NC(c2cccc3ccccc23)Nc2ccc(Cl)cc21` (stereo not drawn), the GI50 is active: 0.631 µM. `CCOC(=O)c1c(CN2CCNCC2)nc2ccc(Cl)cc2c1-c1ccccc1`: the GI50 was inactive: 16.3 µM.

As to `CCOC(=O)c1sc2nc(SC)nc3c2c1NCN3C`, the GI50 is inactive: 41.2 µM. On to `COC1(OC)CC2C(=O)N(Cc3ccccc3)C1C(S(=O)(=O)c1ccccc1)C2C(C)S(=O)(=O)c1ccccc1` (stereo not drawn), for which the GI50 was inactive: > 100 µM. On to `Cc1c(OCc2ccccc2)c(=O)ccn1CCc1c[nH]c2ccccc12`, for which the GI50 is inactive: > 100 µM.

For the molecule `CC(C)C1C(=O)N(c2c(F)c(F)c(F)c(F)c2F)C(=S)N1CC[S+]([O-])c1ccccc1` (stereo not drawn), the GI50 is inactive: 17 µM.

Take `O=C(CCc1nnc(S)[nH]1)Nc1cccc(C(F)(F)F)c1`: the GI50 is inactive: > 100 µM. For `O=c1c2ccccc2nc(-c2ccc(Br)cc2)n1NC1OC(CO)C(O)C(O)C1O` (stereo not drawn) the value was inactive: > 100 µM; for `CCCC(C(=O)Nc1cccc2nc[nH]c12)C(=O)OCC` (stereo not drawn), inactive: > 100 µM; for `CC(C)=CC[S+]([O-])c1ccccc1NC1=CC(=O)CC(C)(C)C1` (stereo not drawn), inactive: > 100 µM. Take `COc1cc2c(oc(=O)c3c4occc4cc(OC)c23)c2cccc(OCc3ccccc3)c12`: the GI50 was inactive: > 100 µM. Take `CN(C)CCC(/C=C/c1ccccc1)=N\Nc1ccc(Cl)c(Cl)c1`: the GI50 was inactive: 3.1 µM. As for `COc1ccc(CNc2nc(NCc3ccc(OC)c(OC)c3)nc(NC3CCCCC3)n2)cc1`, the GI50 is inactive: > 100 µM. For `Cc1cc(N(CCC#N)CCC#N)ccc1/C=C1\SC(=S)NC1=O`, the GI50 is inactive: > 100 µM. Take `CCOC(=O)C1=C(O)C(=O)c2ccccc2C1=O`: the GI50 was inactive: 61.5 µM. With `C=CCCCCn1c2ccccc2c2c(C)c3cnccc3c(C)c21`, the GI50 was inactive: 14.6 µM. As to `O=P(O)(O)CN1CCN(CP(=O)(O)O)CCN(CP(=O)(O)O)CCN(CP(=O)(O)O)CC1`, the GI50 is inactive: > 100 µM. With `COC(=O)c1ccccc1/N=C(/NC1CCCCCC1)NS(=O)(=O)c1ccc(C)cc1`, the GI50 is inactive: > 100 µM. For `O=C1OC(C2Cc3ccc4c(c3C2=O)CCC4)c2ccccc21` (stereo not drawn) the value was inactive: 69.7 µM. As for `COc1ccc(/C(=N\NC(=O)NN)C(c2ccc(OC)cc2)C2(O)C(=O)Nc3c(Cl)cc(Cl)cc32)cc1` (stereo not drawn), the figure is inactive: > 100 µM; as for `CN(C)CN1C(=O)/C(=N\n2c(S)nnc2-c2ccncc2)c2ccccc21`, inactive: 80.9 µM. Take `CCC1=C(C[C@H]2NCCc3cc(OC)c(OC)cc32)C[C@H]2c3cc(OC)c(OC)cc3CCN2C1`: the GI50 was active: 0.0319 µM.

As to `C=C(C)C(=O)CC[C@@H](C)[C@H]1[C@@H](OC2OC(CO)C(O)C(O)C2O)C[C@@]2(C)[C@@H]3C[C@H](O)C4C(C)(C)[C@@H](OC5OC(CO)C(O)C(O)C5O)CC[C@@]45C[C@@]35CC[C@]12C` (stereo partly drawn), the GI50 is inactive: > 100 µM. As for `COC(=O)C1=C(C(=O)OC)C2OC1C1C2C2(C)C(C)=C(C)C1(C)[S+]2[O-]` (stereo not drawn), the figure is inactive: 21.5 µM; as for `O=C(Nc1cccc(C(F)(F)F)c1)C(=O)C(C(=O)c1ccc(Cl)c(Cl)c1)C1OC(=O)c2ccccc21` (stereo not drawn), inactive: 33.3 µM. On to `CC(=O)/N=C1\N/C(=C\c2ccc(Cl)cc2)C(=O)N1/C=C1\C(=O)Oc2ccccc2C1=O`, for which the GI50 is inactive: > 100 µM. Consider `OC(Cn1cncn1)(Cn1cncn1)c1ccc(Cl)cc1Cl`, for which the GI50 is inactive: > 100 µM. Regarding `O=C1C=CC(=O)N1n1c(Cc2ccccc2)n[nH]c1=O`, the GI50 was inactive: > 100 µM. `O=C(/C=C/c1ccc(-c2ccccc2)cc1)NCc1ccc(C(=O)NCCc2c[nH]c3ccccc23)cc1`: the GI50 is inactive: 45.3 µM. With `Cc1ccc(C2(O)c3ccccc3C(=O)N(C)C2(O)c2ccc(C)cc2)cc1` (stereo not drawn), the GI50 is inactive: > 100 µM. Consider `C=C(C)[C@@H]1CC[C@@H](C)[C@](O)([C@@H]2C[C@@H]([C@H](COC(=O)c3ccccc3)OC(=O)c3ccccc3)OC2=O)C1`, for which the GI50 was inactive: > 100 µM. As for `OCC(O)COc1ccc(F)cc1` (stereo not drawn), the GI50 was inactive: > 100 µM. Take `Cc1ccc(C(=O)/C(C#N)=C/Nc2c(C)n(C)n(-c3ccccc3)c2=O)cc1`: the GI50 was inactive: > 100 µM. Take `COc1cccc(NC(=O)CC(=O)n2nc(-c3ccccc3)c(/N=N/c3ccc(Cl)cc3)c2-c2ccccc2)c1`: the GI50 was inactive: 24.3 µM. Take `COc1ccc(C2=NN(C(=O)c3ccc(Cl)cc3)C(O)(c3cc(F)c(Cl)cc3Cl)C2)cc1` (stereo not drawn): the GI50 is inactive: 47.4 µM.

As for `COc1cccc(C(=O)C#Cc2cnc(OC)nc2OC)c1`, the GI50 is inactive: 17.7 µM. `COc1ccc(/C=C/c2cnccn2)cc1OC`: the GI50 was inactive: > 10 µM.

As to `O=C1/C(=C/c2cccc([N+](=O)[O-])c2)COc2ccc(Br)cc21`, the GI50 was inactive: > 100 µM. In the case of `COCCCNc1c2ccccc2nc2ccccc12`, the GI50 was inactive: 5.19 µM. For `O/N=C1/C(=C/c2ccc(F)cc2)CCCC1C(NO)c1ccc(F)cc1` (stereo not drawn) the value was inactive: 18.3 µM. With `COc1ccc(NS(=O)(=O)c2ccc3ncn(NS(=O)(=O)c4ccc(I)cc4)c(=O)c3c2)cc1`, the GI50 is inactive: > 100 µM. Regarding `COc1ccc(N2C(=O)C3c4[nH]c5ccccc5c4C4CCCCC4C3C2=O)cc1` (stereo not drawn), the GI50 was inactive: 16.5 µM.

As to `C[C@H](C(=O)O)C(=O)NC(=O)N(Cc1ccccc1)N=O`, the GI50 was inactive: > 100 µM. For `CC1(C)CCC2(C(=O)O)C(O)CC3(C)C(=CCC4C5(C)CCC(OC6OCC(O)C(O)C6OC6OCC(O)C(O)C6OC6OCC(O)C(OC7OC(CO)C(O)C(O)C7O)C6O)C(C)(C)C5CCC43C)C2C1` (stereo not drawn) the value was inactive: 34.7 µM; for `CSC1=N/C(=C\c2ccccc2)C(=O)N1CN1CCCCC1`, inactive: > 100 µM; for `CO[C@H]1C=CO[C@@]2(C)Oc3c(C)c(O)c4c(O)c(c(CN5CCN(C)CC5)c(O)c4c3C2=O)NC(=O)/C(C)=C\C=C[C@H](C)[C@H](O)C(C)[C@@H](O)C(C)[C@H](OC(C)=O)[C@@H]1C` (stereo partly drawn), inactive: > 83.2 µM. For `O=C(NC1C=CCC2C(=O)N(c3ccccc3)C(=O)C12)OCc1ccccc1` (stereo not drawn), the GI50 is inactive: > 100 µM. For `CCOC(=O)C(Sc1ccccc1)c1c(OC)cc(=O)oc1/C=[N+](/[O-])c1ccc(N(C)C)cc1` (stereo not drawn), the GI50 is inactive: 37.2 µM. As for `O=C(Nc1ccccc1Br)c1cccc([N+](=O)[O-])c1O`, the figure is inactive: 3.94 µM. `NC(=O)c1csc(CCCCCCc2nc(C(N)=O)cs2)n1`: the GI50 is inactive: > 100 µM. As to `COc1ccc2c(C)cc(N/N=C(\C)C=O)nc2c1`, the GI50 was inactive: 12.3 µM. For `CCn1c(-c2ccccc2)cs/c1=N\C(P(=O)(O)O)P(=O)(O)O`, the GI50 was inactive: > 100 µM. Turning to `N=C(N)NS(=O)(=O)c1ccc(Nc2c3ccccc3nc3c(C(=O)N4CCN(CCO)CC4)ccc(Cl)c23)cc1`, the GI50 was inactive: > 100 µM. As for `CN(C(=O)C12C3C4C1C1C2C3C41C(=O)C(C)(C)C)C(C)(C)C` (stereo not drawn), the GI50 was inactive: > 100 µM. For `Cc1cc(-c2ccccc2)nc(Nc2cc3ccccc3[nH]2)n1` the value was inactive: > 100 µM; for `O=C1C2C3C=C4c5ccccc5N(c5ccccc5)C4(C2C(=O)N1Cc1ccccc1)C1C(=O)N(Cc2ccccc2)C(=O)C31` (stereo not drawn), inactive: > 100 µM.

`S=c1nc(Nc2ccc(Br)cc2)c2c3c(sc2[nH]1)CN(N1CCc2c(sc4[nH]c(=S)nc(Nc5ccc(Br)cc5)c24)C1)CC3`: the GI50 is inactive: 26.8 µM.

As for `C=CCc1cccc(/C=N\N/C(N)=N/O)c1O`, the GI50 is inactive: 3.72 µM. For the molecule `Clc1ccc(Cl)c(Nc2ccnc(SCc3ccccc3)n2)c1`, the GI50 is inactive: > 100 µM.

Turning to `NC(=O)c1coc(C2OC(CO)C(O)C2O)n1` (stereo not drawn), the GI50 is inactive: > 100 µM. As for `O=C1C(c2ccc(C3=[N+]([O-])c4cc([N+](=O)[O-])ccc4C3=O)cc2)=[N+]([O-])c2cc([N+](=O)[O-])ccc21`, the figure is inactive: > 10 µM. With `COC(=O)c1cc(-c2cccn2C)c2c(c1C(=O)OC)c1ccccc1n2C`, the GI50 was inactive: > 100 µM. Regarding `CCC1(C)NN=c2s/c(=C/c3ccc(OC)cc3)c(=O)n2N1` (stereo not drawn), the GI50 was inactive: > 100 µM.

`C[Si](C)(C)CC(N)=O`: the GI50 was inactive: > 100 µM. `COc1ccc2c3c1OC1C(F)C=CC4(O)C(C2)NCCC314` (stereo not drawn): the GI50 is inactive: 5.05 µM. For the molecule `O=C(Cc1cc[n+]([O-])cc1)C(=O)Nc1cc(Cl)c(Cl)cc1Cl`, the GI50 is inactive: > 100 µM. Consider `COC(=O)c1c(-c2ccccc2)cc2c3cc(-c4ccccc4)c(C(=O)OC)n3c3ccccc3n12`, for which the GI50 was inactive: > 100 µM. For `O=C(O)C(C(=O)O)P(=S)(S)c1ccccc1` (stereo not drawn), the GI50 is inactive: > 100 µM.

For the molecule `CCC1=C(C(C)=O)[C@@H]2CCCCC(C(=O)OC)[C@@H]2C1=O` (stereo partly drawn), the GI50 is inactive: > 100 µM. For `COc1ccc(C(=O)c2c3cc(OC)c(OC)c(OC)c3cc[n+]2C)cc1`, the GI50 is inactive: 67.3 µM.

With `NC1=NC(=O)[C@H](Cc2c[nH]c3ccccc23)N1C(=O)OCc1ccccc1`, the GI50 was inactive: > 100 µM. For the molecule `O=c1c(C(c2ccccn2)c2c(O)oc3cc(O)ccc3c2=O)c(O)oc2cc(O)ccc12`, the GI50 was inactive: > 100 µM. As for `COc1ccc(-n2sc3ncccc3c2=O)cc1`, the figure is inactive: > 100 µM.
